In assay [1] the target is RTN3 (reticulon 3), split-ubiquitin fusion in yeast (Arabidopsis thaliana) (UniProt Q9SH59). Nature of the assay: two-hybrid; yeast mating-based split-ubiquitin system (mbSUS); Nub and Cub fusions; colony growth indicates an interaction.
Assay [2] deals with T1, RTN6 (reticulon 6), split-ubiquitin fusion in yeast (Arabidopsis thaliana), Q6DBN4.
T1 chain: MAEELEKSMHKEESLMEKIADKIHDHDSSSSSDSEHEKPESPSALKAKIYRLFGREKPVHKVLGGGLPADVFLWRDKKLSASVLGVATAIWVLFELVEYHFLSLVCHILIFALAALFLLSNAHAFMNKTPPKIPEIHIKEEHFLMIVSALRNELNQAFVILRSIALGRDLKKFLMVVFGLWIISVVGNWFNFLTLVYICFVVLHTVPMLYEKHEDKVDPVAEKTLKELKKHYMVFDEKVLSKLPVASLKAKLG
The assay is described as above. To be noted: remark: other sources report otherwise.

Assay [3] concerns the target T2, RTN3 (reticulon 3), split-ubiquitin fusion in yeast (Arabidopsis thaliana), Q9SH59.
T2 chain: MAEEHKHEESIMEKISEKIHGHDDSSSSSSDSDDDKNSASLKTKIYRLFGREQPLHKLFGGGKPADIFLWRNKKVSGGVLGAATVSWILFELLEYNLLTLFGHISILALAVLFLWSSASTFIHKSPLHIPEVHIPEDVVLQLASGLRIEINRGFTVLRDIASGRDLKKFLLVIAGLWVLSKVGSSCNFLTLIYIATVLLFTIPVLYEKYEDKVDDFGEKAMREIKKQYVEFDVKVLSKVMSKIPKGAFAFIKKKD
Described as above. To be noted: remark: other sources report otherwise.

Assay [4] has as its target T3, GFP-RTN3 (Arabidopsis thaliana) (UniProt Q9SH59).
T3 sequence: T2 chain
Nature of the assay: FRET or BRET; FRET-FLIM in tobacco leaf epidermal cells, transient expression; GFP fusion as donor, mRFP fusion as acceptor; a reduction of the donor's lifetime of 0.2 ns or more is taken as energy transfer. (Bioluminescence resonance energy transfer reports proximity on the nanometre scale.)

The target in assay [5] is T4, GFP-RTN6 (Arabidopsis thaliana) (UniProt Q6DBN4).
T4 sequence: T1 chain
Described as above.

Results are given in words; binding and its absence hold for the method and conditions named. For part of these data: Binding seen in cells or lysates may run through a third protein. Sequences can lack the tags named with a protein. Some results given as binding are weak or reduced against the parent protein; the word gives no strength.

B1: RTN3 (reticulon 3), split-ubiquitin fusion in yeast (protein, UniProt Q9SH59 1-255)
chain: T2 chain
Regarding B1, in assay [1], the binding entry was “binds”.

B2: RTN3 (reticulon 3), split-ubiquitin fusion in yeast, Q9SH59 1-255 (protein)
chain: T2 chain
Consider B2, for which the binding entry in assay [2] is recorded as “binds”.

B3: RTN6 (reticulon 6), split-ubiquitin fusion in yeast, Q6DBN4 1-253 (protein)
chain: T1 chain
Consider B3, for which the binding result in assay [3] and in assay [2] was “binds” in each case.

B4: mRFP-ANNAT4 (Annexin 4) (protein, UniProt Q9ZVJ6 1-319)
chain: MALPLELESLTEAISAGMGMGVDENALISTLGKSQKEHRKLFRKASKSFFVEDEERAFEKCHDHFVRHLKLEFSRFNTAVVMWAMHPWERDARLVKKALKKGEEAYNLIVEVSCTRSAEDLLGARKAYHSLFDQSMEEDIASHVHGPQRKLLVGLVSAYRYEGNKVKDDSAKSDAKILAEAVASSGEEAVEKDEVVRILTTRSKLHLQHLYKHFNEIKGSDLLGGVSKSSLLNEALICLLKPALYFSKILDASLNKDADKTTKKWLTRVFVTRADHSDEMNEIKEEYNNLYGETLAQRIQEKIKGNYRDFLLTLLSKSD
Take B4: the binding entry in assay [4] and in assay [5] was “no binding” each time.
